# The source gives no read counts; variants with many changes may rest on few reads.
# B1: OR4K15 (parent)
# chain: GUUAACGGUCAUAGGCCAUGGAAACUAGGAGCACCAUUUCGCUGCCAGUGAAGAAAUGAACAAAGAAAAUCUGGGCCAGGCAGGCAUCAAAAGAAAUAGUCUUGCGCUCAACCAGAAAGUCUGUAAUCAUUUUAAGGGUA
# Variants of: B1
# Assay: self-cleavage, relative activity (ratio to wild type); higher = more cleavage; in vitro, sequencing; the parent is a self-cleaving ribozyme
row,Variant,self-cleavage
1,A55G A129G U132C,1.67
2,A55G A86G A140U,1.28
3,A54G A129C U130C,0.63
4,A56G A64G A94G A96G,0.51
5,A54U U97A U122A,1.55
6,A55G A56G U72C A111G U133C,0.03
7,A54G A94G A114U A118G A134U,0.02
8,A54G A91G A111U G123A A126G,0.02
9,A54U A63G A126G U130C,0.38
10,A55G G79U U108C,0
11,A54G A90G A114U U122G,0.05
12,A54U A55G U70C C76U,0.08
13,A52G A86G A129U,1.02
14,A52G A94G A110G,0.18
15,G53A A86G A125G,0.57
16,A54U A114U A116G,0
17,A54G A64G U87C A117U A126G U139A,0.36
18,A54G A96U U102C,1.86
19,A52G A98G G115U G136A,0.04
20,A52G U102G U103C A111G,0.03
21,A54C A90G A111G,0.02
22,A56G A67G U72C U122C,0.11
23,A54G G80A A111U U131C,0.02
24,A54G A59G U72A A90G,0.47

row,Variant,self-cleavage
1,A55G U100C U133C,2.7
2,A54G A111G U131C,0.02
3,A52U A69G A94G A117U G137A,0.72
4,A54G A67G U130C,1.16
5,A52U U100C U103C,2.38
6,A55U A91G U131C U132A,1.01
7,A54G A111G A118G,0
8,A56G A62G U87C,1.08
9,A54G A68G A78U A126G U132C,0.25
10,A54G A116G A129C A140U,0.29
11,A55U A96G U103C,1.37
12,A52G U97A U120A,2.96
13,G53A A55G U122C A129G,0.72
14,A55G A91G A110G,0.15
15,A52G A69G U102C,1.53
16,A55G U70C U87C A129G,0.32
17,A54U C71U A116G,0.33
18,A55G A59G U97C A116G U130C,0.27
19,A54G A60G A89U A117G,1.54
20,A54G U100A U139C,0.88
21,A54G C109U U124C,0.23
22,A56G A62G A78G A118G,0.07
23,A55G A64G A86C A111U A129G A135G,0
24,A52G A92U U127A,2

row,Variant,self-cleavage
1,A55G A66G U72A A78G,0.19
2,A54G U57C G75A U122A,0.1
3,A55G A56G A59G,1.41
4,A55G A95G A118U A129G,0.29
5,A55G U87C U127C,1.14
6,A54G A59U A67G A91G,0.87
7,A54U A55G A116U,0.46
8,A54U A94G A125G U132C,0.45
9,A54G U97C U133A,1.82
10,A54G A95G U108C U130C,0.01
11,A55G U120C A129U,1.13
12,A54G A62G A82U A96G,0.32
13,A54G A64G A68G U131C,1.1
14,A52U A89U A140G,1.91
15,A54G U97G U127C,2.1
16,A52G U103C U108C A111G A117G,0
17,A56G A68G A69U U102C G106C A126G A135G,0
18,A55G A68U A95G,2.07
19,A52G C76G A116G,0.04
20,A54U U72C A118G,0.16
21,A56G A68G A125U U127C,0.34
22,A55G A60G A118G,0.58
23,A55G A86G A95G,1.84
24,A54G U97C U120C,0.36

row,Variant,self-cleavage
1,A54G A55G A67G,0.91
2,A52U U122G A126G A129G,0.96
3,A54G A90G U131C,1.66
4,A54G A86G C105U A126G A135G,0.04
5,A55U A82G A92G,0.55
6,A54G A117G U130C,0.94
7,A55U A63G A67G U103C,0.98
8,A54U A91G A111G U127G,0.01
9,A55C G99U A118G,0.53
10,A54G A86U A95G U122A A140G,1.82
11,A54G U87C U120C,0.41
12,A52G A111G U124C,0.03
13,A54G A118U U133C,0.65
14,A54G C61U A68G G75C U102C,0.14
15,A52U A60G A62G A64G,0.76
16,A56G A68G U70A U130A,0.63
17,A52U A59G A67U U72C,0.53
18,A55G U102G U108C A129G,0
19,A55G A98U U131C,1.93
20,A56G A67G A90U,1.81
21,A52G G53U A56G C77U A114G U122A,1.83
22,A52G A118G U120C,0.27
23,A54U U120C A140G,0.82
24,A56G A60G A140U,1.23

row,Variant,self-cleavage
1,A55G U57C A116C,0.03
2,A52G A118G U122C,1.03
3,A55G A69G A78G A82U,0.1
4,A52G A78G G137A,0.27
5,A56G A59G U122C U132A,1.67
6,A52G A96G U102C,1.37
7,A56G A63G A94G,1.1
8,A55G A66U A86G A125G,0.15
9,A55G A92G A116G A118G,0.31
10,A54G G115U U122A,0.1
11,A55G A90G U130A,0.06
12,A52U A68G A78G U102A A111G,0.04
13,A52G U87C A90G U120C U132G,0.02
14,A56C A63G A116G,0.7
15,A56G A59G A60G A90G U103C,0.37
16,A55G A59G A78G,0.2
17,A54U U70C A96G A98G,0.12
18,A55G A94U U97C U139C,1.51
19,A52U A95G U122C,2.49
20,A52G A92U G104A U130C,0.01
21,A52G A69G U130C,0.8
22,A54G U70C C81U A82U,0.24
23,A52G U72C A125G,0.03
24,A52G A89G U139C,1.32

row,Variant,self-cleavage
1,A52G G137U A140G,1.06
2,A54G A66U A94U U108C A117G G123A,0
3,A52G A90G G115A,0.11
4,A56C A63G G115A,0.09
5,A54G A111G G137U,0.02
6,A56G A62G U70C A86U U120C,0.14
7,A54G A118G U130C,0.82
8,G53A A59G U100G,1.73
9,A52G A82G A95G,1.49
10,A54G U70C G83A A111U U133C,0.2
11,A54G U100C U130C,2.08
12,A52G A94G A135G,1.84
13,A54G A94G A111G U130C,0
14,A52G A118G A126G,0.9
15,A56G A64G A86U A94U A96G U100C A114U,0.16
16,A52G U87A U108C,0.01
17,A54G A62U U100C,2.16
18,A55G A67G U108C,0.01
19,A55G A92G U100C,2.37
20,A56G A67G U72A A126G U130C A140G,0.03
21,A52G A92G A125G A129C,0.23
22,A52G G58A A89G A118G,0.62
23,A52G A86G C109G A126G,0
24,A54G A110U A111C,0.16

row,Variant,self-cleavage
1,A55G A118G U120A U132C,0.78
2,A52G A126G U127C,1.21
3,A54G A56G A90G U130C,0.43
4,A54G A86U A117G,2.84
5,G53U C81U A90G A110G,0.02
6,A56C U57C A95G,1.76
7,A54G A69U A78U,0.12
8,A55U U72A A94G,0.24
9,A55G A91G A116U,0.13
10,A55G U103C A129C,0.38
11,A55G A82U A86U A110U,0.45
12,A54G A68G U124C,1.08
13,A52U A64G U124C,0.98
14,A52G U87C U132C,2.51
15,A54G A60U U102C A114G U124A,0.49
16,A52U U70C U102C U122C U130C U131C,1.23
17,G53A U72C A95G U103C,0.1
18,A55G A114G A117U,0.22
19,A54G A60G A116G A118G,0.3
20,A55G A82U A135G,0.09
21,A52G U57C A59U A67G U120A,1.19
22,A52G A82U U87C U130C,0.07
23,A52G A111C U120A,0.02
